Measurements taken from the supplement of paper PMC3656093.
± gives the standard deviation of the averaged measurements. The full ranking holds about 1,900 compounds; the median of “CD40L-induced NF-kB luciferase activity, plate-corrected, relative to DMSO (0) and IKK inhibitor VII (-100) controls” is about 0.032, and the lowest 2% start at about -26. This is one part of the list.

tested on: BL2-NFkB-Luc; experiment: CD40L-induced NF-kB luciferase activity, plate-corrected, relative to DMSO (0) and IKK inhibitor VII (-100) controls (% normalized activity); higher = more NF-kB reporter activity (less inhibition); details: 9.4 µM; stimulus: tCD40L 64 ng/ml; 4.5 h
Procedure: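 BL2 B cells with a stable NF-kB response-element luciferase reporter (BL2-NFkB-Luc), 384-well. Cells were pre-incubated with compound at 9.4 uM for 1 h at 37 C, then stimulated with 64 ng/ml trimerized CD40L for 4.5 h; luciferase was read with Steady-Glo. Signal was normalised per plate in Genedata (median DMSO neutral control = 0, median IKK inhibitor VII at 50 uM = -100) with Assay Median plate-pattern correction; duplicate plates.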

Point of comparison: `CC(=O)OCC(=O)[C@@]1(O)CC[C@H]2[C@@H]3CCC4=CC(=O)C=C[C@]4(C)[C@H]3[C@@H](O)C[C@@]21C`, “CD40L-induced NF-kB luciferase activity” value -43.8 ± 2.2. Against it:
- Cc1ccc(C2=NOC(=O)/C2=C\C=C\c2ccccc2)cc1 — higher, 7.89 ± 1.7
- O=C(COc1cc(O)c2c(=O)c3ccccc3oc2c1)OCc1ccccc1 — higher, -8.27 ± 14
- CCOc1ccc(CC2CCC(=O)NC2=O)cc1 (stereo not given) — higher, 4.06 ± 5.1
- Cn1cc(CN2CCC(C(=O)N3CCCCC3)CC2)c(-c2ccccc2F)n1 — higher, 1.51 ± 1.2
- CCOC(=O)C1=C(C)N[C@@]2(O)c3ccccc3C(=O)[C@@]12O — higher, 11.4 ± 1.2
- CC(=O)Oc1ccc(C(=O)O)cc1OC(C)=O — higher, 0.925 ± 0.045
- COc1ccc(NC(=O)C2OC3OC(C)(C)OC3C3OC(C)(C)OC23)cc1 (stereo not given) — higher, 1.04 ± 6.2
- O=C(O)c1cc2cc(F)ccc2[nH]1 — higher, -4.02 ± 4
- COc1ccc(C(=O)Nc2ccccc2C(=O)NC(Cc2c[nH]c3ccccc23)C(=O)O)cc1 (stereo not given) — higher, -0.217 ± 2
- Cc1cccc(N(C)C(=S)Oc2ccc3ccccc3c2)c1 — higher, 0.54 ± 2.5
- O=C(O)c1cccnc1 — higher, -2.25 ± 4.9
- CCCCc1oc2ccccc2c1C(=O)c1cc(I)c(OCCN(CC)CC)c(I)c1 — higher, -5.84 ± 11
- Cc1ccccc1N1C(N)=NC(N)=NC1(C)C — higher, -0.82 ± 0.14
- CN1C(=O)NC(c2ccc(O)cc2)C2=C1CN(c1cccc3ccccc13)C2=O (stereo not given) — higher, -0.466 ± 3.7
- COCCCN1C(=O)/C(=C\c2cccs2)C(C(=O)OC)=C1C — higher, 3.31 ± 6.8
- CC1(C)O[C@@H]2C[C@H]3[C@@H]4C[C@H](F)C5=CC(=O)CC[C@]5(C)[C@H]4[C@@H](O)C[C@]3(C)[C@]2(C(=O)CO)O1 — higher, -21.3 ± 0.59
- CC(=O)Nc1ccc(CN2CCN(C3CCCCC3)C(CCO)C2)cc1 (stereo not given) — higher, -3.33 ± 2.4
- CC12CCC(C(=O)NCc3ccc4c(c3)OCO4)(CC1=O)C2(C)C (stereo not given) — higher, 0.33 ± 1.6
- COc1cccc(OCc2nnc(-c3cccs3)o2)c1 — higher, 18.5 ± 4.1
- COc1ccc(C2C3C(C)=NN=C3CC(C)(O)C2C(C)=O)cc1 (stereo not given) — higher, 2.23 ± 0.31
- COc1ccccc1OS(=O)(=O)c1ccc(NC(C)=O)cc1 — higher, -5.27 ± 7.2
- CC12CCC(C(=O)N3CCCCC3)([C@H](Br)C1=O)C2(C)C (stereo not given in full) — higher, -0.16 ± 1.6
- COc1cc(NC(=S)NC(=O)c2cccs2)ccc1NC(=O)C(C)C — higher, 21.8 ± 2.5
- NNC(=O)c1ccncc1 — higher, 3.57 ± 0.34
- COc1ccc(OC)c(C(=O)c2coc3ccc(O)cc23)c1 — higher, 11.7 ± 0.53
- CC(=O)C1=C(O)C(=O)OC1c1ccc(C)cc1 (stereo not given) — higher, 0.359 ± 1.5
- C[C@]12CC[C@@H]3c4ccc(O)cc4C(=O)C[C@H]3[C@@H]1CC[C@@H]2O — higher, 7.84 ± 6.3
- COC(=O)c1ccc(NC(=O)c2ccccc2SC)cc1 — higher, 18 ± 0.93
- Cc1c(CCOC(=O)CC23CC4CC(CC(C)(C4)C2)C3)sc[n+]1Cc1ccc([N+](=O)[O-])cc1 — higher, -9.19 ± 4.1
